Test results as given in the supplement of paper PMC8728848.
The list shows a part of the results.

Tests used:
Assay in all cases: glycan array binding signal (z-score within array); higher = stronger binding
Conditions in all cases: glycan notation: IUPAC condensed, linker removed
[1] = target: Fuc(a1-3)GlcNAc
Outline: (§1)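 From the Consortium for Functional Glycomics database, 3228 arrays were curated, keeping only those whose protein sequence was available. Binding is given as a within-array Z-score averaged across arrays sharing a protein sequence and across linkers. Negative Z-scores can be read as non-binding.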

[2] = target: Fuc(a1-3)[Gal(b1-4)]Glc6S
Outline: as §1

[3] = target: Fuc(a1-3)[Gal(b1-4)]GlcNAc
Outline: as §1

[4] = target: Fuc(a1-3)[Gal(b1-4)]GlcNAc(b1-2)Man
Outline: as §1

[5] = target: Fuc(a1-3)[Gal(b1-4)]GlcNAc(b1-2)Man(a1-3)[Fuc(a1-3)[Gal(b1-4)]GlcNAc(b1-2)Man(a1-6)]Man(b1-4)GlcNAc(b1-4)GlcNAc
Outline: as §1

[6] = target: Fuc(a1-3)[Gal(b1-4)]GlcNAc(b1-2)Man(a1-3)[Fuc(a1-3)[Gal(b1-4)]GlcNAc(b1-2)Man(a1-6)]Man(b1-4)GlcNAc(b1-4)[Fuc(a1-6)]GlcNAc
Outline: as §1

[7] = target: Fuc(a1-3)[Gal(b1-4)]GlcNAc(b1-3)Gal(b1-3)[Fuc(a1-4)]GlcNAc
Outline: as §1

[8] = target: Fuc(a1-3)[Gal(b1-4)]GlcNAc(b1-3)Gal(b1-4)[Fuc(a1-3)]GlcNAc
Outline: as §1

[9] = target: Fuc(a1-3)[Gal(b1-4)]GlcNAc(b1-3)Gal(b1-4)[Fuc(a1-3)]GlcNAc(b1-3)Gal(b1-4)[Fuc(a1-3)]GlcNAc
Outline: as §1

[10] = target: Fuc(a1-3)[Gal(b1-4)]GlcNAc(b1-3)GalNAc
Outline: as §1

[11] = target: Fuc(a1-3)[Gal(b1-4)]GlcNAc(b1-6)GalNAc
Outline: as §1

[12] = target: Fuc(a1-3)[Gal(b1-4)]GlcNAc(b1-6)[Gal(b1-3)GlcNAc(b1-3)]Gal(b1-4)Glc
Outline: as §1

[13] = target: Fuc(a1-3)[Gal(b1-4)]GlcNAc6S
Outline: as §1

[14] = target: Fuc(a1-3)[Gal3S(b1-4)]Glc
Outline: as §1

[15] = target: Fuc(a1-3)[Gal3S(b1-4)]GlcNAc
Outline: as §1

[16] = target: Fuc(a1-3)[Gal3S(b1-4)]GlcNAc6S
Outline: as §1

[17] = target: Fuc(a1-3)[GalNAc(b1-4)]GlcNAc
Outline: as §1

[18] = target: Fuc(a1-3)[GalNAc(b1-4)]GlcNAc6S
Outline: as §1

[19] = target: Fuc(a1-4)GlcNAc
Outline: as §1

[20] = target: Fuc(b1-3)GlcNAc
Outline: as §1

[21] = target: Gal(a1-2)Gal
Outline: as §1

[22] = target: Gal(a1-3)Gal
Outline: as §1

[23] = target: Gal(a1-3)Gal(b1-3)GlcNAc
Outline: as §1

[24] = target: Gal(a1-3)Gal(b1-3)GlcNAc(b1-2)Man
Outline: as §1

[25] = target: Gal(a1-3)Gal(b1-3)GlcNAc(b1-2)Man(a1-3)[Gal(a1-3)Gal(b1-3)GlcNAc(b1-2)Man(a1-6)]Man(b1-4)GlcNAc(b1-4)GlcNAc
Outline: as §1

[26] = target: Gal(a1-3)Gal(b1-3)GlcNAc(b1-3)GalNAc
Outline: as §1

[27] = target: Gal(a1-3)Gal(b1-3)GlcNAc(b1-6)GalNAc
Outline: as §1

[28] = target: Gal(a1-3)Gal(b1-3)[Fuc(a1-4)]GlcNAc(b1-2)Man(a1-3)[Gal(a1-3)Gal(b1-3)[Fuc(a1-4)]GlcNAc(b1-2)Man(a1-6)]Man(b1-4)GlcNAc(b1-4)GlcNAc
Outline: as §1

[29] = target: Gal(a1-3)Gal(b1-4)Glc
Outline: as §1

[30] = target: Gal(a1-3)Gal(b1-4)GlcNAc
Outline: as §1

[31] = target: Gal(a1-3)Gal(b1-4)GlcNAc(b1-2)Man
Outline: as §1

[32] = target: Gal(a1-3)Gal(b1-4)GlcNAc(b1-2)Man(a1-3)[Gal(a1-3)Gal(b1-4)GlcNAc(b1-2)Man(a1-6)]Man(b1-4)GlcNAc(b1-4)GlcNAc
Outline: as §1

[33] = target: Gal(a1-3)Gal(b1-4)GlcNAc(b1-3)GalNAc
Outline: as §1

[34] = target: Gal(a1-3)Gal(b1-4)GlcNAc(b1-6)GalNAc
Outline: as §1

[35] = target: Gal(a1-3)Gal(b1-4)[Fuc(a1-3)]GlcNAc
Outline: as §1

[36] = target: Gal(a1-3)Gal(b1-4)[Fuc(a1-3)]GlcNAc(b1-2)Man(a1-3)[Gal(a1-3)Gal(b1-4)[Fuc(a1-3)]GlcNAc(b1-2)Man(a1-6)]Man(b1-4)GlcNAc(b1-4)GlcNAc
Outline: as §1

[37] = target: Gal(a1-3)GalNAc
Outline: as §1

[38] = target: Gal(a1-3)[Gal(a1-4)]Gal(b1-4)GlcNAc
Outline: as §1

[39] = target: Gal(a1-4)Gal(b1-3)GlcNAc(b1-2)Man(a1-3)[Gal(a1-4)Gal(b1-3)GlcNAc(b1-2)Man(a1-6)]Man(b1-4)GlcNAc(b1-4)GlcNAc
Outline: as §1

[40] = target: Gal(a1-4)Gal(b1-4)Glc
Outline: as §1

[41] = target: Gal(a1-4)Gal(b1-4)GlcNAc
Outline: as §1

[42] = target: Gal(a1-4)Gal(b1-4)GlcNAc(b1-2)Man(a1-3)[Gal(a1-4)Gal(b1-4)GlcNAc(b1-2)Man(a1-6)]Man(b1-4)GlcNAc(b1-4)GlcNAc
Outline: as §1

[43] = target: Gal(a1-4)Gal(b1-4)GlcNAc(b1-3)Gal(b1-4)Glc
Outline: as §1

[44] = target: Gal(a1-4)GlcNAc
Outline: as §1

[45] = target: Gal(a1-6)Glc
Outline: as §1

B1: Pwp3 (Candida glabrata) (protein)
chain: MGSSHHHHHHSSGLVPRGSHMASKNPVDFTTVCQFPDNFSKKPGFLATTARLGLWITGNSYKELLNYPGTFTLTTQQASTTTPNIQLRGTDLFTTIYGLTVYPLYLLVELQGYFVPTQSGMYTFSLTGSDDAAIIFIGNPSTFPCDAFKTWPQATANDITVTDSINPSRTLYMVKGVAYPLRIAYYNGLGNGVLNAAFTDPSGTKRTDWNGYIWQYDQCSTCTYK
In the case of B1, the “glycan array binding signal (z-score)” value [1] is reported as -0.392, the “glycan array binding signal (z-score)” value [2] is reported as 5.3 and the “glycan array binding signal (z-score)” value [3] is reported as -0.407. The “glycan array binding signal (z-score)” value [4] was -0.319, the “glycan array binding signal (z-score)” value [5] was -0.269 and the “glycan array binding signal (z-score)” value [6] was -0.773. The “glycan array binding signal (z-score)” value [7] was -0.801, the “glycan array binding signal (z-score)” value [8] was -0.348 and the “glycan array binding signal (z-score)” value [9] was -0.346. For the same binder, the “glycan array binding signal (z-score)” value [10] was -0.732, the “glycan array binding signal (z-score)” value [11] was -0.516 and the “glycan array binding signal (z-score)” value [12] was -0.587. For the same binder, the “glycan array binding signal (z-score)” value [13] was 0.959, the “glycan array binding signal (z-score)” value [14] was -0.185 and the “glycan array binding signal (z-score)” value [15] was -0.35. The “glycan array binding signal (z-score)” value [16] was -0.334, the “glycan array binding signal (z-score)” value [17] was -0.375 and the “glycan array binding signal (z-score)” value [18] was -0.5. The “glycan array binding signal (z-score)” value [19] was -0.367, the “glycan array binding signal (z-score)” value [20] was -0.094 and the “glycan array binding signal (z-score)” value [21] was -0.259. The “glycan array binding signal (z-score)” value [22] was -0.664, the “glycan array binding signal (z-score)” value [23] was -0.233 and the “glycan array binding signal (z-score)” value [24] was -0.478. For the same binder, the “glycan array binding signal (z-score)” value [25] was 0.083, the “glycan array binding signal (z-score)” value [26] was -0.665 and the “glycan array binding signal (z-score)” value [27] was -1. The “glycan array binding signal (z-score)” value [28] was 1.04, the “glycan array binding signal (z-score)” value [29] was -0.568 and the “glycan array binding signal (z-score)” value [30] was -0.145. For the same binder, the “glycan array binding signal (z-score)” value [31] was -0.239, the “glycan array binding signal (z-score)” value [32] was -0.338 and the “glycan array binding signal (z-score)” value [33] was -0.598. The “glycan array binding signal (z-score)” value [34] was -0.329, the “glycan array binding signal (z-score)” value [35] was -0.365 and the “glycan array binding signal (z-score)” value [36] was -0.483. For the same binder, the “glycan array binding signal (z-score)” value [37] was -0.265, the “glycan array binding signal (z-score)” value [38] was -0.87 and the “glycan array binding signal (z-score)” value [39] was 0.962. For the same binder, the “glycan array binding signal (z-score)” value [40] was -0.579, the “glycan array binding signal (z-score)” value [41] was -0.193 and the “glycan array binding signal (z-score)” value [42] was -0.343. For the same binder, the “glycan array binding signal (z-score)” value [43] was -0.304, the “glycan array binding signal (z-score)” value [44] was -0.186 and the “glycan array binding signal (z-score)” value [45] was -0.257.
